Laboratory results as given in PMC10668032.
This is one part of the list. At the low end of the ranking the order means little.

Target: SIX1 homeodomain (reference allele) (UniProt Q15475)
Experiment: universal protein binding microarray
Conditions: Universal all-10-mer PBM (8x60K, AMADID 030236), 300 nM GST-tagged protein, Alexa Fluor 488 anti-GST; buffer, salt, pH and temperature not stated; high values mean tight binding; most listed sequences are background and not binding sites; double strand, one strand shown

Sequence | binding signal [E-score]
ACAATAGG | -0.183
GACAGCAC | -0.123
CTGGGTTC | 0.0748
CCCGACCC | 0.122
CTGCTGGC | -0.183
GAGCGCAA | -0.268
GTTATAGA | 0.0174
CTAAATCA | -0.0877
AGACAGTG | -0.0473
ACCGCCCC | 0.216
GAACGTGA | -0.149
ATCAAATC | 0.237
GCCATGCC | -0.182
GCCGGACC | -0.133
AGGCAGAG | -0.197
ACATCAAC | -0.0474
AACAGGAT | 0.179
ATACAGGA | 0.228
CGGCCTTC | -0.246
TATCACCA | 0.42
ACTGTGGG | -0.0264
CAAAGTCA | -0.354
AATGAACC | -0.0828
GTCTTTTA | -0.137
CACCCGCG | 0.125

Sequence | binding signal [E-score]
TCTAAAAA | -0.181
AGGAAACG | -0.14
ATTATGAG | 0.19
GATCTGCC | 0.334
ACAAGGCT | -0.256
CCGTGACC | 0.0385
GTTTTTGA | 0.0525
AATCGGGC | -0.0215
ACATGCCT | -0.106
CCCATCGC | 0.085
AAGTCCGA | -0.0759
AGTGGGTG | 0.184
TTGTGAAA | -0.148
CGGAGGCA | -0.0607
TGCAAACA | -0.203
AAATCTAG | -0.0948
ATCCCATG | 0.311
ACTTCGAT | 0.0937
AAACGTGG | -0.224
TAGGCAGA | 0.000455
TACAAAAA | -0.144
CCGATCTC | 0.316
ACTCCATA | 0.0147
TTCGACAA | -0.11
AGGAAGGC | -0.147

Sequence | binding signal [E-score]
AGGATACT | 0.364
ATGACGCC | 0.0684
ACACGACC | -0.103
CCTCGGCG | 0.0609
ATTACTTC | -0.0625
AATCCCGC | 0.073
ACCCCACC | 0.275
AATAAGCG | -0.185
AGCTGGAA | 0.00532
TTCTCAAA | 0.122
ACCACTTC | -0.0577
CACTAAAC | 0.0181
CCTCTTGC | -0.195
GCAGAACA | -0.0357
CCGATCTA | 0.262
ATAACAGG | -0.102
CAGGCTTC | -0.111
ATATTCTC | 0.269
AGGCCAAA | -0.316
ATCCCTGC | 0.233
AAGGACAA | -0.239
AACTTCGA | -0.195
ATTACTAC | -0.0661
ATCTCAGC | 0.21
CATAACCG | -0.033

Sequence | binding signal [E-score]
GCTTGGAC | -0.0873
CTCTAGCC | -0.068
CGTGCTTA | -0.14
CTGCCCCA | -0.00338
ACATCCGA | 0.0707
TGGCAACA | -0.117
AGTGTAAG | -0.00617
ACGATGTC | -0.149
CGGGAAAC | 0.0256
ACAAATCA | -0.103
CTTTCATA | -0.143
CTTTGGCC | -0.205
CGATCTGC | 0.209
ATGTGCAA | -0.109
CCGCTACC | -0.0386
ATCCAGCG | 0.165
ACACGGGT | 0.23
AGGATGAC | 0.0837
TGCGCGAA | -0.124
AGGAGAAG | 0.127
CAGTTACG | -0.249
CGACGCTA | -0.0888
CTATGCTA | 0.0235
GCAAAAGC | -0.159
GGTTCATA | 0.154

Sequence | binding signal [E-score]
CAGAGATC | 0.296
GAAAATCC | -0.113
CTCCACGC | -0.165
CCGGAAAC | 0.0143
CGGAGTCC | -0.202
ACGTTGCC | -0.253
AGATACGA | 0.279
AGCCCGTC | -0.182
CATATTGA | 0.178
ATGCATGA | 0.162
ACACCGCG | 0.283
CATGACGC | -0.0877
TACAGATA | 0.267
CGAGAAGC | 0.0719
CAGACCGC | -0.12
ACTATTTA | -0.0352
ACTATGCT | -0.053
CCTGCCGA | 0.0432
ATTGTGTC | 0.0154
AAGGCGAA | -0.282
ACCACACC | 0.174
CCCGTGTC | 0.255
CCCCAGTC | -0.0618
TATCTTGA | 0.252
AGTCGCTG | -0.277

Sequence | binding signal [E-score]
CAGCTGCA | -0.168
CCGACCAC | -0.0149
GTATAGAA | 0.215
CTCCCTCA | 0.0199
ATCGCATG | 0.247
TCTACTCA | 0.118
AAAAAGGT | -0.108
AGGTTCAC | -0.141
CGGAATAA | -0.143
CTTGGCCC | -0.193
ACGTTGCG | -0.209
AGTGTGCC | -0.152
GGCTCCAA | -0.244
GTTAGAAC | -0.087
CAGTGAAG | -0.108
CCCGCTAA | 0.0135
AAAGCCGG | -0.119
GCCCCTCC | 0.158
ATCGTAAT | 0.178
AGGCACGA | -0.166
CCGTAAGA | -0.0735
AGCGTACG | -0.282
GTACCAAC | -0.185
AATGCAAC | -0.138
CGTCATAC | 0.094

Sequence | binding signal [E-score]
AGCGACAT | -0.0929
AAGTATTG | 0.157
AAATTGCG | -0.101
TCCAAACA | -0.0916
CGTTCCAA | -0.199
AATACTAT | 0.278
GTATCGGA | 0.451
TCTGTGCA | 0.0882
AATTATCC | 0.134
CACTTTAG | 0.0665
ATCGGACG | 0.179
CTTTATGC | -0.0501
ACGCGACT | -0.0828
GAAAGGTA | 0.046
CTATATCC | 0.366
TGGATAAA | 0.144
CTGGGGTC | 0.164
CTCTCCTA | 0.0537
ATAATCTG | 0.197
AGACGTAT | 0.319
GCTGGATA | 0.324
CGCTGGGA | 0.128
